# Assay results taken from paper PMC4336329 (PLoS ONE, 2015).
# The campaign covered roughly 310,000 compounds. About 2,200 (0.71%) showed an effect of 50% or more. Effects have a minus sign here. The list shows a part of the results.
# Target: human ether-à-go-go-related gene (hERG) potassium channel (human, UniProt Q12809)
# Assay: primary screen, population patch clamp on CHO cells stably expressing hERG
# human ether-à-go-go-related gene (hERG) potassium channel, sequence (Q12809 whole entry, looked up): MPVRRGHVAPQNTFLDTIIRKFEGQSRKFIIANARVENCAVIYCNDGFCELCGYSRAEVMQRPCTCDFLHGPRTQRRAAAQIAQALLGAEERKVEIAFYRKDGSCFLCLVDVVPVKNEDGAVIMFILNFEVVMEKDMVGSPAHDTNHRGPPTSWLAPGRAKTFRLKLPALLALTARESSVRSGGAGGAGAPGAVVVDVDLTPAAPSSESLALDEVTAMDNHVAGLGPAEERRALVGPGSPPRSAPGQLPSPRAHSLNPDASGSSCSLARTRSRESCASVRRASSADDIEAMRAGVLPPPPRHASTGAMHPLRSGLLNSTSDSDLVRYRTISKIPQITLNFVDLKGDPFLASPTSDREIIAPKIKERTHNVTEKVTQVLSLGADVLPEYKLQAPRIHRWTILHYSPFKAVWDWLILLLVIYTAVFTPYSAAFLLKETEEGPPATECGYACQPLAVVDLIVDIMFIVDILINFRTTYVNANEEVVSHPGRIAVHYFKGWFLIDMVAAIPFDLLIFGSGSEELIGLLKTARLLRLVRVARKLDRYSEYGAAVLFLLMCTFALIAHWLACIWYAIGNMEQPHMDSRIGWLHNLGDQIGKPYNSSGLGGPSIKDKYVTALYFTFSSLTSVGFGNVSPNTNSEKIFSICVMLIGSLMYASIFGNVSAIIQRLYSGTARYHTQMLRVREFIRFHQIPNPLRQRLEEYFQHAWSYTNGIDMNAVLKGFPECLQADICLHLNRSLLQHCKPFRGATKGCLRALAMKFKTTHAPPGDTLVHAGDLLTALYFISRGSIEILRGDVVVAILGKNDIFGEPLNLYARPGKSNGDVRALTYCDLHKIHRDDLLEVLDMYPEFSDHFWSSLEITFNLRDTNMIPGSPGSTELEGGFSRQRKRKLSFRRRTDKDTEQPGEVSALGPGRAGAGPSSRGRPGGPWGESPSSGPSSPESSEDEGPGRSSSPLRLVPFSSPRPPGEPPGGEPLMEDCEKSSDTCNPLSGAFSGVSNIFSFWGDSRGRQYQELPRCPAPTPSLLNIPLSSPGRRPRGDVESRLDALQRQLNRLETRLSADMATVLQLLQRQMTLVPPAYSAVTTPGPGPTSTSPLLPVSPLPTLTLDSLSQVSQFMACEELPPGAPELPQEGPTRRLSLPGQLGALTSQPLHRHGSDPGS
row,Compound,"hERG current change (%, negative = inhibition) at 1uM [%]"
1,COc1ccccc1CCNC(=O)C(=O)NCC1OCCN1S(=O)(=O)c1cc(F)ccc1F (stereo not shown),8.74
2,CCOC(=O)C1=C(C)N(CCCC(=O)O)C(=O)NC1c1ccc([N+](=O)[O-])cc1 (stereo not shown),15.8
3,Cc1nc(C(=O)NC2CCOCC2)sc1C1(C)CC(c2cccc([N+](=O)[O-])c2)=NO1 (stereo not shown),10.1
4,NS(=O)(=O)c1ccc(NC(=O)/C=C/c2cccc(Cl)c2)cc1,10.6
5,O=S(=O)(c1ccccc1)N1CCC(N2CCCCCC2)CC1,13.6
6,Cc1cc(Nc2nnnn2-c2ccccc2)n(-c2ccccc2)n1,-13.8
7,COc1ccccc1NC(=O)/C(C#N)=C/C=C/c1ccco1,-12
8,CCOc1ccc(OCCCCNCCN)cc1.O=C(O)C(=O)O,14.5
9,CCCCn1c(SCn2nnc3ccccc3c2=O)nc2cc(S(N)(=O)=O)ccc21,9.75
10,Cc1cccc(N2CCN(C(=O)C3COc4ccccc4O3)CC2)c1C (stereo not shown),0.785
11,Fc1ccc(CNCc2ccccc2C(F)(F)F)cc1,10.6
12,COc1cccc(C2C(C(=O)c3cccs3)=C(O)C(=O)N2c2cc(C)on2)c1 (stereo not shown),13.2
13,CC(C)C[C@H](NC(=O)c1nc[nH]c1C(=O)N1CCN(C(=O)OC(C)(C)C)CC1)C(=O)OC(C)(C)C,1.12
14,CC(=O)Nc1ccc(NC(=O)c2c(-c3ccccc3Cl)noc2C)cc1,8.49
15,COc1ccc(/C=N/NC(=O)c2ccc(Br)cc2)c(OC)c1,10.1
16,Nn1c(SCC(=O)Nc2nccs2)nncc1=O,16.3
17,COc1ccccc1N1CCN(C(=S)Nc2cccc(C)c2)CC1,11
18,CCCCCCC(=O)Nc1nc(C)c(-c2csc(Nc3cc(Cl)ccc3OC)n2)s1,15.4
19,CCOC(=O)C1=C(c2ccccc2)N(C)C(=O)NC1c1ccc(O)c(OC)c1 (stereo not shown),14.3
20,O=C(CCc1ccccc1)Nc1cc2c(cc1Cl)OCCO2,-2.24
21,Cc1ccc2c(c1C)NC(=O)CC(c1ccccc1O)=N2,1.1
22,CCc1ccc(NC(=O)COC(=O)c2ccc(Cl)c(S(=O)(=O)N3CCCCCC3)c2)cc1,12

row,Compound,"hERG current change (%, negative = inhibition) at 1uM [%]"
1,COc1ccc(CCC(=O)NC2CCCN(Cc3ccc(Cl)cc3)C2)cc1OC (stereo not shown),-20.5
2,COc1cccc(OC)c1C(=O)Nc1ccccc1C(=O)N1CCCCCC1,-1.21
3,CCOC(=O)c1sc(NC(=O)CSC(=S)N2CCOCC2)nc1C,10.1
4,O=C(Nc1ccc(S(=O)(=O)Nc2nccs2)cc1)c1cnc(Cl)c(Cl)c1,-2.91
5,O=C(CNC(=O)COc1ccccc1)NCc1cccnc1,10.9
6,COc1ccc(-c2sc3ccccc3c2C#CCCO)cc1,19.1
7,COC(=O)C1=C(NC(=O)C(C)(C)C)CCS1,10.7
8,CN(c1ccccc1)c1ccc([N+](=O)[O-])c2nonc12,14.5
9,Cc1cccc(C(=O)CC(=O)c2cc(Cl)ccc2O)c1,11.6
10,CC(C)(C)c1ccc(C(=O)O[C@H]2[C@H](Cc3ccccc3)NS(=O)(=O)[C@H]3C[C@@H]4C=C[C@]23O4)cc1,19.3
11,O=c1cc(CN2CCCCCC2)nc2sccn12,-8.88
12,O=C(CCc1nnc(Cc2cccc(C(F)(F)F)c2)o1)NCC(F)(F)F,7.14
13,OCCOCCn1c(CCNc2nc(-c3ccc(F)cc3)cs2)nc2cc(C(F)(F)F)ccc21,-8.32
14,Cc1ccccc1NC(=O)C1c2cccc[n+]2CC(=O)N1Cc1ccc2c(c1)OCO2.[I-] (stereo not shown),2.79
15,O=C(Cc1ccccc1[N+](=O)[O-])Nc1nccs1,-8.97
16,CC(C)NC(=S)N/N=C/c1cccnc1,14.3
17,CC1CCN(S(=O)(=O)c2ccc3c(c2)NC(=O)CS3)CC1,-13
18,Fc1ccc(COc2ccc(/C=N/n3cnnc3)cc2)cc1,-3.03
19,COC(=O)c1sccc1NC(=O)COc1ccccc1Cl,9.24
20,Cc1cc(C)c(S(=O)(=O)N2CCCCC2)c(C)c1N(C)S(=O)(=O)c1ccc(Cl)cc1,8.47
21,Nc1ccc(-c2nc3ccccc3o2)cc1,16.9
22,Brc1cc(Br)c2ncnc(N3CCCCC3)c2c1,7.96

row,Compound,"hERG current change (%, negative = inhibition) at 1uM [%]"
1,Cc1c(N=Nc2c(O)n(C)c(=O)n(C)c2=O)c(=O)n(-c2ccccc2)n1C,6.63
2,CN(C)CCCN(C(=O)c1ccc(S(=O)(=O)N2CCCCCC2)cc1)c1nc2ccc(Br)cc2s1.Cl,8.04
3,O=C1NC[C@H](Cc2ccc(O)cc2)N(CC2CCCCC2)C1=O,15.2
4,C=C[C@@H]1c2ccccc2N(S(=O)(=O)c2ccc(C)cc2)[C@H](c2ccccc2)C1(C#N)C#N,14.5
5,Cc1[nH]nc2c1C1(CCC3(CC1)OCCO3)C(C#N)=C(N)O2,-3.1
6,CC(C)Oc1cccc(C(=O)C2CCCN(Cc3cnc(N4CCOCC4)s3)C2)c1 (stereo not shown),4.85
7,CC1(C)Cc2c(sc3c2c(=O)n(-c2cccc(Cl)c2)c(=O)n3CC(N)=O)CO1,10.2
8,CC(=O)NN=C1CCC(c2ccccc2)CC1 (stereo not shown),7.42
9,O=C(CCC(=O)Nc1ccc(Oc2ccccc2)cc1)NCCO,5.53
10,COc1ccc(CCNC(=O)C2(C)CCC(=O)N2Cc2ccc3c(c2)OCO3)cc1OC (stereo not shown),9.17
11,CCc1ccc(OCC(=O)Nc2ccc(S(=O)(=O)N3CCCC3)cc2)c(Br)c1,1.25
12,CCn1cc(CN2CCC(C(=O)Nc3ccc(Oc4cccnc4)cc3)CC2)cn1,2.13
13,COc1ccccc1CN1CC(C(=O)N2CCOCC2)CCC1=O (stereo not shown),10.2
14,O=C(CCNS(=O)(=O)c1ccccc1Cl)OCc1nnc(-c2ccccc2Cl)o1,7.79
15,CN(C)/C=C/C(=O)c1cnc2sccn2c1=O,11.2
16,Oc1ccc(/C=N/Nc2nccnc2Cl)c(O)c1,4.17
17,CCOC(=O)c1c(=O)n(O)c2ccc(C)cc2[n+]1[O-],24.4
18,COc1cccc(CN(C)C(=O)CSCC(=O)Nc2cc(C)on2)c1OC,12.5
19,CC(=O)c1cccc(NC(=O)CN2C(=S)NC(C)(C)CC2C)c1 (stereo not shown),10.6
20,O=C(NCc1csc(-c2cccs2)n1)c1ccccc1,13
21,Cc1cccc(C)c1OCC(=O)Nc1nnc(C2CCCO2)s1 (stereo not shown),4.79
22,Cc1nnc(NS(=O)(=O)c2ccc(N)cc2)s1,13.1

row,Compound,"hERG current change (%, negative = inhibition) at 1uM [%]"
1,Cc1cc(C(=O)NC2CCCc3c2cnn3-c2cccc(C)c2C)n(C)n1 (stereo not shown),18
2,Cc1cccc(C)c1NC(=O)c1cn(-c2ccccc2)nc1-c1ccccc1,11.8
3,Nc1nonc1-n1nnc(C(=O)N/N=C/c2cccs2)c1CSc1ccccc1,12.9
4,O=C1CCCN1CCCNS(=O)(=O)c1cccc(F)c1,1.36
5,CC(C)Nc1nnc(SCC(=O)Nc2ccc(F)cc2)s1,11.7
6,CC1(OC(=O)CCc2ccccc2)C(=O)C=C2C=C(c3ccc(C#N)cc3)N(C3CC3)C=C2C1=O (stereo not shown),-3.82
7,COc1cccc(NC(=O)COC(=O)CNC(=O)C2CCCCC2)c1,17.7
8,Cc1noc(C)c1CSCC(=O)NC1=NCCS1,13.6
9,O=C(CN1CCN(C(=O)C2COc3ccccc3O2)CC1)Nc1ccccc1 (stereo not shown),-22.5
10,O=C(N/N=C/c1ccco1)c1cc(-c2ccc(Br)s2)[nH]n1,11.1
11,C/C(=N\NC(=O)c1ccc(N2CCCC2=O)cc1)c1ccccc1,11.1
12,Cc1cc(O)c(C(=O)/C=C/c2ccc(Cl)cc2)c(=O)o1,15.7
13,C[C@@H]1NC(=O)c2cc([N+](=O)[O-])cc(I)c2NCC[C@@H](C(N)=O)NC(=O)[C@H](CC(N)=O)NC1=O,5.96
14,O=C(CN1C(=O)C2CC=CCC2C1=O)Nc1nnc(C2CC2)s1 (stereo not shown),9.43
15,CCSc1ncc(Cl)c(C(=O)Nc2ccc(S(=O)(=O)Nc3ncccn3)cc2)n1,20.2
16,C=Cc1ccc(Cn2nc(-c3ccc(C)cc3)ccc2=O)cc1,19.4
17,O=C(NCCc1nc2ccccc2[nH]1)c1ccc(Br)o1,4.53
18,FC(F)(F)c1ccccc1/C=N/n1c(COc2ccccc2)n[nH]c1=S,15.3
19,CC(=O)OC(C(=O)NCc1ccc(F)cc1)c1ccccn1 (stereo not shown),4.85
20,CN(Cc1ccccc1)C(=O)CN(c1ccc(F)cc1)S(=O)(=O)c1ccc2c(c1)OCCO2,2.47
21,O=C(NCCN1CCOCC1)C1CC(=O)N(c2ccc(F)cc2)C1 (stereo not shown),1.56
22,COC(=O)C1=C(c2ccc(Cl)c(C(F)(F)F)c2)C[C@@H]2CC[C@H]1N2C(=O)NCc1cc(C)oc1C(F)(F)F,12.4
